Source: publication PMC4336329 (PLoS ONE, 2015)
The campaign covered roughly 310,000 compounds. About 14,000 (4.5%) showed an effect of 50% or more. The effect is printed as a negative number. This is one part of the list.

target: human ether-à-go-go-related gene (hERG) potassium channel (human, UniProt Q12809); assay: primary screen, population patch clamp on CHO cells stably expressing hERG
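Note: peak tail current of the secondary pulse compared with the same well before compound.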

Chain of human ether-à-go-go-related gene (hERG) potassium channel (Q12809 whole entry, looked up): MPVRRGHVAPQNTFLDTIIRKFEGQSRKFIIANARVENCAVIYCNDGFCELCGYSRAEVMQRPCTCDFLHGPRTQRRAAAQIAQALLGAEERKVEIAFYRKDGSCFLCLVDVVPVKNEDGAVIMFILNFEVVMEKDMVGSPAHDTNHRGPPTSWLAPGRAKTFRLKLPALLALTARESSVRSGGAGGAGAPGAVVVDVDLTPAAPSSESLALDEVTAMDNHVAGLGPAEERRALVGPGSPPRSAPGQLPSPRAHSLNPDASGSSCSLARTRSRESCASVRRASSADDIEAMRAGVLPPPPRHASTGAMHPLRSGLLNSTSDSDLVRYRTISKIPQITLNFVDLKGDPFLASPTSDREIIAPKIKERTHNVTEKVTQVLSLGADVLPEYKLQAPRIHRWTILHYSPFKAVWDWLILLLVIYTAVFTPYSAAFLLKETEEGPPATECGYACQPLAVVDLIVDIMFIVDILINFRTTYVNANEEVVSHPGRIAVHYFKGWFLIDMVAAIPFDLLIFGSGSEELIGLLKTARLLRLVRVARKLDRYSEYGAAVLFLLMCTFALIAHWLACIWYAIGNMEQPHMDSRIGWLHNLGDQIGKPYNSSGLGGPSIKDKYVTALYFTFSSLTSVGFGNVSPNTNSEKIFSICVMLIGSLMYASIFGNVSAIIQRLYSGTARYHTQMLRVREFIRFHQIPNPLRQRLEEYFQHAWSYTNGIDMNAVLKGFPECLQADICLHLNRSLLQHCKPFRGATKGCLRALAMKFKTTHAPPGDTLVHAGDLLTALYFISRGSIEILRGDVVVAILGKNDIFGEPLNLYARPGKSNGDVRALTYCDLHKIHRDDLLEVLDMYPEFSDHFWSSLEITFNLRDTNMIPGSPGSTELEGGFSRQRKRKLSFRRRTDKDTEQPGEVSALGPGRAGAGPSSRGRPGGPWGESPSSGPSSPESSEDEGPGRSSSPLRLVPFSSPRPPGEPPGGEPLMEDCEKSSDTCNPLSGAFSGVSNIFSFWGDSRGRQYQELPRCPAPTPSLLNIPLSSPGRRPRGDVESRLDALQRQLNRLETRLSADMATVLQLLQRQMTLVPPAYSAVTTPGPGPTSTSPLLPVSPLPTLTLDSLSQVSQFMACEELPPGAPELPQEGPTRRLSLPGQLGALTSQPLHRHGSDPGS

SMILES	hERG current change (%, negative = inhibition) at 10uM
CCN1C(=O)[C@@H]2[C@@H](c3ccc(-c4ccc(OC)cc4)c(OC)c3)N3CCC[C@@]3(C(=O)OC)[C@@H]2C1=O.O=C(O)C(F)(F)F	-12.7%
COC(CNC(=O)Cn1ncc2ccsc2c1=O)OC	15.7%
NC(=S)N/N=C1\CC(n2nnnc2-c2ccccc2Cl)C2COC1O2 (centres unmarked)	-14.4%
Cn1c2ccccc2c2cc(/C=N/NC(=O)c3cc(O)ccc3O)ccc21	4.48%
Cc1ccc(-n2cc(C(=O)c3ccc(N4CCN(C)CC4)cc3)nn2)cc1Cl	11.6%
CCOC(CNC(=O)Cn1nc(Cc2ccncc2)c2ccccc2c1=O)OCC	19%
O=C1[C@@H]2[C@@H]3C[C@@H]([C@H]4ON=C(c5ccc(Cl)cc5Cl)[C@@H]34)[C@@H]2C(=O)N1C1CCCCC1	-5.74%
O=C(CCN1CCN(c2ccccc2)CC1)c1ccc(Br)cc1	-55.1%
COc1ccc(C2/C=C\CN(C(=O)Nc3ccccc3)CC(=O)N2Cc2ccc(F)cc2)cc1 (centres unmarked)	-2.9%
COc1cccc(OCC(=O)NNC(=O)c2cccs2)c1	6.63%
Oc1ccc(N2CCN(c3ccnc4cc(Cl)ccc34)CC2)cc1	-22.7%
COc1cccc(NC(=O)c2ccc(CN3CCOCC3)cc2)c1	3.07%
Cc1ccc(-c2nc(NC(=O)CSc3nnc4scc(-c5ccccc5)n34)ns2)cc1	-1.19%
COc1cccc(OCC(O)CN2CCOCC2)c1.Cl (centres unmarked)	18.7%
Cc1ccc(N2CC(NC(=O)C(=O)c3c(C)[nH]c4ccccc34)CC2=O)cc1 (centres unmarked)	-47.8%
CN(Cc1nc(-c2ccccn2)no1)S(=O)(=O)c1ccc(Cl)cc1	-10.3%
CSc1ncc(CN2CCN(C(C)C)C(CCO)C2)cn1 (centres unmarked)	-2.82%
CCOC(=O)N1CCN(C(=O)/C(=C/c2ccc(N(C)C)cc2)NC(=O)c2ccccc2)CC1	-45.6%
Cc1c(OCC(=O)N2CCC(C(N)=O)CC2)ccc2c3c(c(=O)oc12)CCCC3	14.2%
CS(=O)(=O)N1CCC(C(=O)NCC2CCCO2)CC1 (centres unmarked)	10.3%
O=[N+]([O-])c1cc(-c2csc(NCCc3nc4cc(C(F)(F)F)ccc4n3CCCO)n2)ccc1Cl	-3.59%
CCN(CC(=O)NCc1ccccc1Cl)CC(=O)Nc1c(F)cccc1F.O=C(O)C(=O)O	-9.59%

SMILES	hERG current change (%, negative = inhibition) at 10uM
CCn1c(CNc2ccc(Cl)cc2)nnc1SCC(=O)NCc1ccccc1	-44.4%
O=C(COC(=O)c1cc(S(=O)(=O)N2CCOCC2)c(Cl)cc1Cl)NC1CC1	-8.9%
O=C(O)c1cccc(-n2nnnc2SCc2ccccn2)c1	-23.1%
Cc1ccc(NC(=O)NNC(=O)c2ccccc2)cc1	10.6%
N#Cc1ccc(NCC(=O)Nc2ccc3c(c2)OCCO3)cc1	-4.32%
Cc1cc(C)nc(SCc2nc3ccccc3n2C)n1	-0.591%
O=C(O)c1cccnc1SCC(=O)N1CCCc2ccccc21	14.6%
CCc1ccc(NC(=O)CCNS(=O)(=O)c2cccc3nsnc23)cc1	-14.9%
CCOC(=O)c1cc(CC)sc1NC(=O)c1ccc([N+](=O)[O-])c(N2CCOCC2)c1	1.43%
CCOc1cc(C2NC(=S)NC(C)=C2C(=O)Nc2ccc(OC)cc2)ccc1O (centres unmarked)	5.86%
COC(=O)CC1C(=O)NCCN1C(=O)CSc1nnc(Nc2ccc(OC)cc2)s1 (centres unmarked)	-1.46%
COc1ccc(-c2c3c(=O)n(C)c(=O)n(C)c3cn2NC(C)=O)cc1	12.2%
C/C(=N\O)C(=O)NCCCNCCCN(C)C	7.1%
O=C(O)c1ccc(OCC2CCCO2)cc1 (centres unmarked)	9.96%
CSc1n[nH]c(NCc2ccccc2)n1	1.23%
CCOC(=O)c1[nH]c2ccc(Br)cc2c1NC(=O)CCN1CCOCC1	2.43%
COCCCn1c(C(C)C)nc2oc3cc(OC)ccc3c(=O)c2c1=O	-9.6%
CC1CCN(C(=O)C2CCCN(c3ncnc4c3nc3n4CCCCC3)C2)CC1 (centres unmarked)	-41.5%
COc1ccc(NC(=O)c2ccc(CN3CCc4ccccc4C3)cc2)c(OC)c1	-8.73%
O=C1c2cccc3cc([N+](=O)[O-])cc(c23)C(=O)N1/N=C/c1ccc(O)cc1O	5.25%
COc1ccc(N(CC(=O)N/N=C/c2ccc(C(=O)O)cc2)S(=O)(=O)c2ccc(NC(C)=O)cc2)cc1	0.241%
Cc1cc(/C=C2\C(=N)N3C(SCc4ccccc4)=NSC3=NC2=O)c(C)n1Cc1ccccc1	-8.37%

SMILES	hERG current change (%, negative = inhibition) at 10uM
CCOC(=O)N1CCN(c2c(NCc3ccccc3OC)c(=O)c2=O)CC1	0.238%
C=CC(=O)NCNC(=O)C=C	21.2%
NC(=O)Cn1nnc(-c2ccc(CN3CCCCC3)cc2)n1	21.6%
O=C(Nc1ccccc1-c1ccccc1)c1ccc(NC(=O)c2ccco2)cc1	-2.05%
O=C(CSc1nc(O)cc(=O)n1-c1ccc(Cl)c(Cl)c1)Nc1ccc(Cl)cc1Cl	11.4%
COc1ccc(-n2cc(-c3ccccc3)c3c(N4CCN(CCO)CC4)ncnc32)cc1	-42%
Cc1ccc(S(=O)(=O)Nc2cccc(-c3ccc(N4CCCCCC4)nn3)c2)cc1C	21.8%
CC(Cl)C(=O)Nc1cc(C(F)(F)F)ccc1N1CCOCC1 (centres unmarked)	2.38%
O=C(N/N=C/c1ccncc1)c1cc([N+](=O)[O-])cc([N+](=O)[O-])c1O	4.15%
COc1cccc(-c2nn(C)c3sc(C(=O)NCc4ccco4)cc23)c1	-0.35%
COc1ccc(S(=O)(=O)NCC2CCC(C(=O)NCc3ccc(F)cc3)CC2)cc1 (centres unmarked)	16.7%
CCN(CC(=O)NC(C)C)C(=O)C(CCSC)NC(=O)c1cccc(C)c1 (centres unmarked)	11%
COc1ccc(S(=O)(=O)N2CCOCC2)cc1NC(=O)CSc1n[nH]c(=O)n1C1CC1	5.83%
O=C(c1cccs1)N1CCN(c2ncccn2)CC1	0.299%
COc1cc2c(cc1OC)-c1cc3ccc(OC)c(OC)c3c[n+]1CC2.[Cl-]	-8.91%
Cc1nn(C)cc1CN(C)C(=O)CC12CC3CC(CC(C3)C1)C2	0.3%
CCN(CC)CCCNC(=O)c1ccccc1NC(=O)C1=CSCCO1	-27.5%
CN(Cc1c(C(=O)N/N=C/c2ccccc2)nnn1-c1nonc1N)C1CCCCC1	8.4%
Cc1ccc(S(=O)(=O)N2CCCC(C(=O)N3CCN(c4ccccc4)CC3)C2)cc1 (centres unmarked)	-46.5%
CCOC(=O)COc1cc(OCC(=O)OCC)c2c3c(c(=O)oc2c1)CCCC3	-8.06%
COC(=O)Nc1ccc(S(=O)(=O)N2c3ccccc3CCC2C)cc1 (centres unmarked)	-2.41%
COc1cc(C)c(S(=O)(=O)NCCCn2ccnc2)cc1C	11.9%

SMILES	hERG current change (%, negative = inhibition) at 10uM
CCOC(=O)c1cc(C)sc1NC(=O)CSc1nnnn1C	-22.7%
CCC(NC(=S)NC1CCCCC1)c1ccccc1 (centres unmarked)	8.96%
Cc1ccc(Cn2cc(/C=C/C(=O)O)c(-c3ccccc3)n2)cc1	6.77%
CC(=O)N1c2ccc(S(=O)(=O)NCCC(=O)N3CCC(C)CC3)cc2CC1C (centres unmarked)	12.7%
O=C(COc1ccc2ccccc2c1)Nc1cccc(C(=O)Nc2ccccc2C(=O)O)c1	2.39%
C#Cc1cccc(C(=O)N2CCCC(Nc3cccc(F)c3)C2)c1 (centres unmarked)	-9.07%
CC(=O)c1cccc(NC(=O)N2CCCC2C(=O)NC2CCCCC2)c1 (centres unmarked)	17.2%
Cc1ccc(S(=O)(=O)N2CC(C)N(S(C)(=O)=O)C2)cc1 (centres unmarked)	18.5%
CC(C)NC(=O)C1COc2ccccc2O1 (centres unmarked)	16.7%
O=C(Nc1ccccc1)Nc1ccc2ccccc2n1	9.86%
Cn1c(=O)oc2cc(S(=O)(=O)CCC(=O)Nc3ccccc3)ccc21	16.8%
CC(C)OC(=O)Nc1ccc(N=C(N)N[N+](=O)[O-])cc1	2.71%
CCn1c(CN2CCN(Cc3ccc(C)cc3)C(CCO)C2)nc2ccccc21 (centres unmarked)	-74.7%
O=C(CCSc1ccccc1Cl)Nc1cccc([N+](=O)[O-])c1	-6.62%
CC(C)(C)[C@H]1C=C(C(=O)Nc2ccccc2)O[C@@H](OCCCCO)C1	2.68%
COc1ccc(CCNC(=O)CCCCCN2C(=O)[C@@H]3Cc4ccccc4CN3C2=O)cc1OC	-24.4%
Cc1ccccc1CN(c1ccc(C(N)=O)cc1)S(C)(=O)=O	-11%
CC(=O)Nc1nc(-c2cc([N+](=O)[O-])cs2)cs1	18.8%
N#CC1=C(N)NC(SCC(=O)O)=C(C#N)C12CCCC2	-7.59%
Cc1ccc(S(=O)(=O)N2CCN(C(=O)COC(=O)CNC(=O)c3ccc(Cl)cc3Cl)CC2)cc1	9.45%
